Test results as given in PMC4336329 (PLoS ONE, 2015).
In all, about 310,000 compounds went through this assay and about 2,200 (0.71%) showed an effect of 50% or more. The effect is printed as a negative number. Some of the results follow.

biological target: human ether-à-go-go-related gene (hERG) potassium channel (human, UniProt Q12809); assay: primary screen, population patch clamp on CHO cells stably expressing hERG
Sequence (Q12809 whole entry, looked up): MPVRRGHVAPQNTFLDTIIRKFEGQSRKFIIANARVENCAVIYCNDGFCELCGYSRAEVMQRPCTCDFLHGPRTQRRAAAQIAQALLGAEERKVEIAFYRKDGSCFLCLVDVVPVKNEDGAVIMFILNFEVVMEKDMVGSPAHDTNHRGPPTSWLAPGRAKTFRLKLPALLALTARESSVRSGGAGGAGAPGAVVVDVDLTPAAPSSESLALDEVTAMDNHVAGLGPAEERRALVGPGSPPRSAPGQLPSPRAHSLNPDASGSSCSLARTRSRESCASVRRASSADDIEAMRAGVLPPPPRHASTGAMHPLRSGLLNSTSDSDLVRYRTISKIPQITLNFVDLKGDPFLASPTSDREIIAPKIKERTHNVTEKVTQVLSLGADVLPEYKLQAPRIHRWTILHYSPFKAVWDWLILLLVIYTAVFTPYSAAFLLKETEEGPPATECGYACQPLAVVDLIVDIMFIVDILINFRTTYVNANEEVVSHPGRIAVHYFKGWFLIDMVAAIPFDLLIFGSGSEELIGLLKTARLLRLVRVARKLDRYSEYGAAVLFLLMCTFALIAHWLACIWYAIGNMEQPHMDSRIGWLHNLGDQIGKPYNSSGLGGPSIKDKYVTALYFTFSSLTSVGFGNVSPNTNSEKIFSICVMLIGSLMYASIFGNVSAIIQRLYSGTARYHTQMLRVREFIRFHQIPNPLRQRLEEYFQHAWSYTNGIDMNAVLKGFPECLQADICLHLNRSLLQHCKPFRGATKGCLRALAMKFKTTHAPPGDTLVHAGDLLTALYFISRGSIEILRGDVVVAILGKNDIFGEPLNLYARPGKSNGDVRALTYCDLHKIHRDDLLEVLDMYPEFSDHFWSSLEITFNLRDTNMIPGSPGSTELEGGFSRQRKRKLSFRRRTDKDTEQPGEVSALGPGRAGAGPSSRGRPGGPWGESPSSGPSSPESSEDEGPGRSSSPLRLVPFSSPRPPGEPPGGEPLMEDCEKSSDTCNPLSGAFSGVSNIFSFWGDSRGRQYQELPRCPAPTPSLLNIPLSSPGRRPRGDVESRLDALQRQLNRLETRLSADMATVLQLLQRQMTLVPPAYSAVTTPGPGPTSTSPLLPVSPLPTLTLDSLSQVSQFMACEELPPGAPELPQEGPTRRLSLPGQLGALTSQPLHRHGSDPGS

| SMILES | hERG current change (%, negative = inhibition) at 1uM |
| --- | --- |
| Cc1cc(OC(=O)c2c(C)cc(O)cc2O)cc(O)c1C(=O)O | 14.8% |
| O=C(NCCCN1CCCC1)c1cc2c(Cl)nc3ccccc3c2s1 | 11.4% |
| O=C(COC(=O)c1ccc(NS(=O)(=O)c2ccc(F)c(F)c2)cc1)NCC1CCCO1 (centres unmarked) | 4.24% |
| O=C(NC1CCN(C(=O)NC2CCCCC2)CC1)c1ccco1 | 9.4% |
| CN(C)c1nc(N)nc(/C(C#N)=C/C2CC3C=CC2C3)n1 (centres unmarked) | 9.42% |
| Cc1nc2ccccc2c2oc(C(=O)NCC3CCCO3)cc12 (centres unmarked) | -8.21% |
| COC(=O)c1c(NC(=O)c2ccn(C)n2)sc2c1CCC2 | 8.56% |
| CC1CCc2c(c3ccccc3n2C(=O)CCl)C1 (centres unmarked) | 10.9% |
| COc1ccc(NC(=O)c2c(NC(=O)CNCc3ccco3)sc3c2CCC3)cc1 | 18.5% |
| O=[N+]([O-])c1cc(S(=O)(=O)Nc2cccc(C(F)(F)F)c2)ccc1-n1nnc2ccccc21 | -3.95% |
| Clc1ccc2[nH]c3c(NCC4CCCO4)ncnc3c2c1 (centres unmarked) | -3.05% |
| O=C(CSc1cccc[n+]1[O-])c1cc2ccccc2o1 | -0.219% |
| CC(=O)Nc1cccc(-c2csc(Nc3ccccn3)n2)c1 | 7.88% |
| CSc1nc2nc3c(cc2c(=O)[nH]1)C(O)Oc1ccc(C)cc1-3 (centres unmarked) | 5.33% |
| CS/C(=C\[N+](=O)[O-])Nc1ccc(F)cc1 | 15.6% |
| CCCCn1cnc2c(c1=O)c1nc3ccccc3nc1n2Cc1ccc2c(c1)OCO2 | 14.8% |
| COc1cc(OC)c(N(C)S(=O)(=O)c2cccc(C(=O)OCC(=O)c3c[nH]c4ccccc34)c2)cc1Cl | 13.2% |
| O=C(c1cccn2c(=O)c3cc(Cl)ccc3nc12)N1CCOCC1 | -20.8% |
| Cc1nc(S/C(=C/c2ccc(-c3cc(Cl)ccc3C)o2)C(=O)O)n[nH]1 | 8.81% |
| Cn1cc(C(=O)N2CCN(c3ccccc3)CC2)c(=O)c2cc(S(=O)(=O)N3CCOCC3)ccc21 | 13.9% |
| CCSc1nnc([C@H](C)NC(=O)OC(C)(C)C)o1 | 2.99% |
| CCCCOc1ccc(Nc2nc(C)cc(C)c2C#N)cc1 | -0.768% |

| SMILES | hERG current change (%, negative = inhibition) at 1uM |
| --- | --- |
| CCOC(=O)c1ccc(NC(=S)Nc2ccc3[nH]c(=O)[nH]c3c2)cc1 | 8.34% |
| Cn1c2ccccc2c2c(C(=O)N3CCN(c4ccccn4)CC3)cn(C3CCCC3)c(=O)c21 | 7.13% |
| Cc1cc(NC(=O)CSCC(=O)OC(C)C(=O)N(C)Cc2ccccc2)no1 (centres unmarked) | 1.79% |
| Cc1ccc(C(=O)OCC(=O)Nc2c(Cl)cc(S(N)(=O)=O)cc2Cl)o1 | 13.8% |
| O=C(O)c1ccc2c(=O)n3c(nc2c1)/C(=C/c1ccc(F)cc1)CC3 | 18% |
| Cc1ccc(C(=O)OCCOc2cccc(Cl)c2)cc1S(=O)(=O)N1CCOCC1 | 9.74% |
| O=C1c2ccccc2C(=O)N1CCCCN(C(=O)c1ccc(Cl)s1)c1ccc(Cl)cc1 | 7.61% |
| Cc1ccc(-n2nnnc2SCC(=O)Nc2ccc(N3CCN(C)CC3)cc2)c(C)c1 | -1.09% |
| CC(C)[C@H](NC(=O)N1c2ccccc2NC(=O)[C@@H]1C(C)C)C(=O)N[C@@H](Cc1c[nH]c2ccccc12)C(=O)O | 3.59% |
| O=C(Nc1ccccc1O)c1cc(S(=O)(=O)N2CCOCC2)ccc1Cl | 0.208% |
| Cc1ccc(Nc2cc(C)nn2-c2nc(C)cc(=O)[nH]2)cc1 | 7.46% |
| CCC(C)CCN1C(N(C)C)=NC[C@@H]1CC(C)C (some centres unmarked) | 5.17% |
| COc1cccc(OC)c1OCc1cc(C2C3CCCC=C3C(C#N)=C(N)C2(C#N)C#N)c(C)cc1C (centres unmarked) | 13.5% |
| c1ccc(Cn2cc(CN3CCCO3)c(-c3ccc4c(c3)OCO4)n2)cc1 | 24.8% |
| CC1CC(C)CN(C(=O)Cn2c(=O)c3cccn3c3cccnc32)C1 (centres unmarked) | -1.89% |
| Cc1ccc(Cl)cc1NC(=O)COC(=O)C12CC3CC(CC(C3)C1)C2 | 4.17% |
| CC(C)Cn1c(=S)[nH]c2cc(C(=O)O)ccc2c1=O | 6.14% |
| COc1ccc(CNC(=O)COC(=O)CCOc2ccc(C)cc2)cc1 | 13.5% |
| O=C1COc2ccc(C(=O)COC(=O)c3cc(S(=O)(=O)N4CCOCC4)ccc3F)cc2N1 | 10.8% |
| CCCCSc1nnc(NC(=O)CCc2ccccc2)s1 | -3.68% |
| CCOc1ccc(C(=S)N2CCCC2)c(OCC)c1 | 7.44% |
| Cc1ccc(Nc2c(-c3ccc(C)o3)nc3cnccn23)cc1 | 9.32% |

| SMILES | hERG current change (%, negative = inhibition) at 1uM |
| --- | --- |
| COc1ccc(-n2c(-c3ccco3)nc3c(cnn3-c3ccc(C)cc3)c2=O)cc1 | 2.82% |
| Cc1cccc(N(CC(=O)Nc2c(C)n(C)n(-c3ccccc3)c2=O)S(C)(=O)=O)c1C | 0.135% |
| Cc1cc(=O)[nH]c(N/N=C/c2ccc(O)c(O)c2)n1 | 11.5% |
| Cc1ccc2c(c1)N(CC(=O)N1CCCc3ccccc31)C(=O)CO2 | -11.6% |
| CN1CCN(C2Cc3cc(F)ccc3Sc3ccc(Cl)cc32)CC1.O=C(O)/C=C\C(=O)O (centres unmarked) | 10.8% |
| C/C(O)=C(\C#N)c1nc2ccccc2[nH]1 | -1.56% |
| Cc1ccccc1NC(=S)NC12CN3CN(CN(C3)C1)C2 | 12.2% |
| CCCCN(C(=O)c1ccc2c(c1)OCCO2)c1c(N)n(CC(C)C)c(=O)[nH]c1=O | -11.9% |
| O=C(NCc1ccco1)c1sc2cc(Cl)ccc2c1Cl | 12.7% |
| COc1ccc(C2CC(C(F)(F)F)n3nc(C(=O)NCCN4CCOCC4)cc3N2)cc1 (centres unmarked) | -11.1% |
| Cl.NCCCCNCCCN | 13.9% |
| O=c1cc(-c2ccccc2O)nc(-c2ccccc2)[nH]1 | 17.7% |
| COc1cc(C(=O)Nc2cccc(-c3nc4cc(C)ccc4o3)c2C)cc(OC)c1OC | 13.1% |
| O=C1NC(=Nc2ccccc2Cl)S/C1=C\c1cccc([N+](=O)[O-])c1 | 7.71% |
| NC(=S)Nc1cc(Cl)ccc1Cl | 6.1% |
| Cc1ccccc1NC(=O)c1sc(Cl)nc1C | 14.3% |
| CSc1nc2ccccc2nc1N(C)S(=O)(=O)c1ccc(C)cc1 | 8.27% |
| CC1(C)NC(=O)N(CCCC(=O)Nc2ccc(C(F)(F)F)cc2)C1=O | 3.39% |
| COC(=O)C(O)(CC(=O)c1ccc(OC)cc1)C(F)(F)F (centres unmarked) | 10.8% |
| CC(=O)Oc1ccc(C(=O)[C@H]2[C@H]3C(=O)N(c4ccccc4)C(=O)[C@H]3[C@@H]3C=CC=NN32)cc1 | 16.4% |
| CC(C)OC(=O)c1c(NC(=O)c2cnn3c2NC(c2ccccc2)CC3C(F)(F)F)sc2c1CCCC2 (centres unmarked) | 3.79% |
| COC(=O)COc1cc(C)cc2oc(=O)c3c(c12)CCCC3 | -4.18% |

| SMILES | hERG current change (%, negative = inhibition) at 1uM |
| --- | --- |
| COc1cccc(NC(=O)N2CCN(c3cccc(C)c3)C(C)C2)c1 (centres unmarked) | 0.112% |
| Cc1cc(C)c(C)c(S(=O)(=O)N2CCC(C(=O)NCC(c3ccccc3)N(C)C)CC2)c1C (centres unmarked) | 0.427% |
| CSc1ccc(CN(C)CC(=O)Nc2ccccc2Br)cc1 | 20.3% |
| O=C(CN(C(=O)Cn1nnc(-c2ccc(F)cc2)n1)c1cnc2ccccc2c1)NCC1CCCO1 (centres unmarked) | 7.32% |
| Cl.O=C(COc1ccc(F)cc1)OCCN1CCOCC1 | 8.2% |
| Cc1ccc(C(=O)NCc2ccc3c(c2)OCO3)cc1S(=O)(=O)N1CCOCC1 | -13.6% |
| CC(C)OC(=O)Nc1ccc(Oc2c(F)c(F)c(F)c(F)c2F)cc1 | -9.95% |
| CCCc1cc(CN(C)C(=O)CC2C(=O)NCCN2Cc2ccccc2C)[nH]n1 (centres unmarked) | 12.4% |
| Cc1ccc2oc(-c3cccc(NC(=S)NC(=O)c4cccs4)c3)nc2c1 | 11.9% |
| CCCCc1ccc(NC(=O)N[C@@H](C)C(=O)O)cc1 | 3.46% |
| Cc1cccc(N=Nc2c(C)[nH]n(C(N)=S)c2=O)c1C | 13.5% |
| CCCCCCC(C)n1cc(C(C)=O)c(=O)n(C)c1=O (centres unmarked) | 0.513% |
| COc1ccccc1NS(=O)(=O)c1ccc(O)cc1 | -0.976% |
| C=CCN(CC(=O)NCC1CCCO1)C(=O)CCC(=O)Nc1cc(C)on1 (centres unmarked) | 8.44% |
| C=C(C)C(=O)OCC(O)COc1ccc(C(C)(C)c2ccc(OCC(O)COC(=O)C(=C)C)cc2)cc1 (centres unmarked) | 4.91% |
| O=C(CCN1C(=O)/C(=C/c2ccc(F)cc2)SC1=S)Nc1cc([N+](=O)[O-])ccc1O | 12.1% |
| O=c1ccc(-c2ccccc2)n[nH]1 | 19.8% |
| Cc1cc(-c2ccc(S(=O)(=O)N(C)c3ccc(C)c(C)c3)s2)on1 | 15.7% |
| NS(=O)(=O)c1ccc(CCNC(=O)CSc2nc3ccccc3c3nc(CCN4CCCCC4)nn23)cc1 | 6.63% |
| CCCc1cc(=O)[nH]c(SCC(=O)N2CCC(C)CC2)n1 | 12.5% |
